Laboratory results published in the RNAGym collection of RNA variant scans (doi:10.7554/elife.90254).
Read counts are not given, so values of variants with three or more changes are uncertain.

B1: LINE1-mini (parent)
chain: GGCAGAGCUCAACACAGCGUGGCAAAGUGGCUGUGGCUAGACUGCC

Variants of: B1
Test: self-cleavage, relative activity (ratio to wild type); higher = more cleavage; in vitro, sequencing; the parent is a self-cleaving ribozyme

Variant | self-cleavage
C23U A26G C37A A39U A41U | 0.33
C3U G33U G36U | 0.02
C3G G21A G30U | 0.2
C23G G27A U28C G29A C31G | 0.14
G21U C37U C45U | 0.11
A4G C13A C15G G27U G44U | 0.03
C3G C13A G17A G29A | 0.13
G2A A4U G21C A24U G36U | 0.12
G1U G27C G35C U38G | 0.03
A6G A11G G30C G35A | 0.01
G7A A12C G27A G33U U38C | 0.03
C15U G22A G35A | 0.07
G2A A11U U20A | 0.01
A6U G22U U28C A41C | 0
G5U G21U C31A | 0.01
C13U G17A A26G C46U | 0.01
C15U C18G G35C | 0.05
C3G A14U G21U | 0.27
G17A U28A G33C | 0.09
G2U A11U G19U U20C G22C A25G C45G | 0.01
A11U C13A G22A A24U U28A | 0.01
C8A C15U G17U | 0.06
U9G G30U G36U C45U | 0.02
A4U U20A A26G C46U | 0.02

Variant | self-cleavage
G2A G30U C37G | 0
G2C A26C U32G C42A | 0.05
C3G G17C A26U G33U A39C | 0.05
A11G U20C C37U U38G | 0.01
G2U A11U G19U G21A C23G G40U | 0
A12C A14C G17C G27C | 0.02
C13G A26C G29U | 0.07
C3A A16U A25C G40C C46A | 0.03
A25G G29C G36A | 0.12
A12C C23G U34A G40A C45G | 0
U9C G29C G35U | 0.01
A24U U32A G33C A41U | 0.17
G2U A11U G29U A39C | 0
A26G G35U C46U | 0.06
G5C A6C U20G G21U C46A | 0.04
A16U A26G C31G U38C | 0.03
A4U C13U U38C C46U | 0.05
G7A G29A G33C | 0.05
G5C G30A A39G | 0.02
G2A A12U C13G G22A | 0.17
G5U C37A C42A C45A | 0.01
A24U U32G U38C | 0.06
C18U C23G A39C | 0.18
A25U G36U C46G | 0.02

Variant | self-cleavage
G7A C31G U32A | 0.02
C13G A16C C31U | 0.04
C3G A4C A6G C13U | 0.01
G21U U34C G44A | 0.06
G27A G36C A39G A41G C45U | 0.02
G1C G21A G33U G35U | 0.01
G19U U28A U34C U43A | 0.05
C3A C8U G21U C23U C37G | 0.11
A6C G21A A26U C46A | 1.4
G2C G30A G36U C42G | 0.15
G17A A24C A25C G36C | 0.05
C13A C31U C37A | 0.04
G1A C15U A26C U43A | 0.02
C23G A26U C31U | 0.08
G1C G2A C18U A24U C37A | 0.01
G5C A24U U28G | 0.05
C10A A14C C23A G29U | 0.04
C3G U20G U38C | 0.08
C10A A12U C46A | 0.02
G2A G19C G21C C37A | 0.06
A4G G7A C10U C15A G19A U20G C31G | 0.06
C13G C18A G21C C37A | 0.07
G5A A14G U20G G22C U43C G44U | 0.04
U9G G36U A39U G40U | 0.15

Variant | self-cleavage
G2U C13A A14G G30C | 0.03
G2A A4U A16G | 0.35
G21U C31U U43C | 0.03
A4C G33C C42U | 0.08
A6U G22U G35C G36C C37U G40C | 0.08
A11U U34A U38C C46G | 0.03
A25G U28A G29A U38C C42A G44A | 0.04
U28G G30A C46A | 0.27
C10U A14U G21U U32G A39C C42A C46U | 0.01
A16G G19A C45A | 0.8
U9G G21A A39C C42U | 0.38
G2U U32G C45A | 0.04
G22A G27U A39U | 0.73
A12C U20G C23A | 0
C3G C10A C37A C45U | 0.01
G2C G35U G36A | 0.15
G2A G5C C8U U28C C31U | 0.15
A14C G29C G35U C45G | 0.01
G21U U28G G29U C31U | 0.05
C18G C23U A25U | 0.19
C10U G21C C23U C45A | 0.09
C3A A16U G17A A39G C42A U43G | 0.07
A6G G27U C46A | 0.1
A16U G21C G22U | 0.08

Variant | self-cleavage
A24U G30U C42U | 0.88
A14C G44C C46U | 0.13
G2U A4U G5U U9A G36U A41U G44C | 0.01
G5A G22A U34A | 0.11
G7A C8G C23A A24G C42A | 0.31
G5U C13G U20G G22A | 0.02
G2U A4U A14G G17C | 0.02
G1U C10A C31G G40U | 0.01
G29U C31U C37A | 0.06
C23A U34G C45G | 0.07
A4C G22C A39G C46U | 0.17
A11C C13U G21C A25U | 0.02
G5C C10U A14G A16G G27C G35U | 0.02
A12U A24U C42U | 0.15
A12C C18U G33U C46U | 0
C3A U20A G33A | 0.2
A12G A16U G22U A41U G44C C45A | 0
A6C U9G G19C G27A | 0.06
A14U A16G G27U C42U U43G | 0.07
C15G G36U G44A | 0.02
C18A A26C U34A | 0.02
A14U G35U A39U G40C | 0.03
C23U U32C C45G | 0.03
G2U A6G G7U C8A G22U C31A | 0.09

Variant | self-cleavage
G5A A11G C13A U38G | 0.03
G40C C42A G44A | 0.01
C15A C37G A39C G40U | 0.03
G7U A14U G33C U38A | 0.19
A4U C15A A16C A24G | 0.05
C31U G40C C45G | 0.03
U20A G21C A41C | 0.09
A6C A14C G29U U32C U38A | 0.09
G2A A4G U38A | 0.23
A11U A12U C13G C15A G17U C18A | 0.03
C3A G27C G35U | 0.17
C8A A11U A16C A39G C45U | 0.02
C3G G7U U9A A14C | 0.03
G2A G17U A41C C42A | 0.42
A4G C15G A25C C46U | 0.08
C8A C13A A14C C18U G19A C23U A25G G29C G40C | 0.08
C31A G35A G44A C45G | 0.01
C18U G22U A25U A26U C45A | 0.01
G2A C13A G35A | 0.06
G27U U38A C45A | 0.18
C3G C10A A16G | 0.01
A12G A24U A26C | 0.01
G1U G29U U32G | 0.08
C3A C10U C23U U38C | 0.06

Variant | self-cleavage
G5U A25C U34A U43C | 0.04
G5C G7U U20C C31A C46A | 0.02
C13U A16G G30U C45U C46A | 0.02
A4G G22C G30U C31G | 0.04
A4U C15U U28C G33A A41C C46U | 0.03
G2U A25C C37G | 0.03
C8U A16G G29U A39C | 0.04
A6G A24U G36U A41C | 0.07
A6C G17A U38C | 0.05
G17U C23G G30A G33A G40A | 0.08
G1C U9G C18A G29U | 0.01
A6U G21A G27U | 0.4
C3A C10A A16U | 0.07
C8A A26C U28G G36U | 0.14
G21U G40U U43C | 0.06
U20C G44C C46U | 0.04
G36C G40U U43A | 0.09
C8G A14C C45A | 0.03
C23G A26C C45G | 0.17
A11C G27C C31U | 0
A14U U20C C23U U34A C46U | 0.26
G2C A26U G27U C46G | 0.09
C13G U32C G40U | 0.02
